Measurements as given in article PMC7181131, “N-Pyrazinoyl Substituted Amino Acids as Potential Antimycobacterial Agents—the Synthesis and Biological Evaluation of Enantiomers” (Molecules, 2020).
Read-outs that look alike come from different tables or passages of the source.

Tests used:
Assay in all cases: microbe, parasite or virus in culture
[1] = test system: Enterococcus faecalis CCM 4224 (ATCC 29212)
[2] = test system: Escherichia coli CCM 3954 (ATCC 25922)
[3] = test system: Acinetobacter baumannii DSM 30007, ATCC 19606
[4] = test system: Pseudomonas aeruginosa CCM 3955 (ATCC 27853)
[5] = 24 h, read-out: MIC, visual detection

SMILES	MIC ([1]; 24 h, read-out: MIC EF)	MIC ([2]; 24 h, read-out: MIC EC)	MIC ([3]; 24 h, read-out: MIC ACI)	MIC ([4]; 24 h, read-out: MIC PA)	further results
CCOC(=O)[C@@H](C)NC(=O)c1cnccn1 [PC-D-Ala-Et, ethyl (pyrazine-2-carbonyl)-D-alaninate]	> 500 µM	> 500 µM	> 500 µM	> 500 µM	–
CCOC(=O)[C@@H](NC(=O)c1cnccn1)C(C)C (racemic) [PC-DL-Val-Et, ethyl (pyrazine-2-carbonyl)valinate]	> 500 µM	> 500 µM	> 500 µM	> 500 µM	–
C[C@@H](NC(=O)c1cnccn1)C(=O)O [PC-D-Ala, (pyrazine-2-carbonyl)-D-alanine]	> 500 µM	> 500 µM	> 500 µM	> 500 µM	–
COC(=O)[C@H](NC(=O)c1cnccn1)[C@H](C)OC(C)(C)C [PC-D-OtBu-Thr-Me, methyl O-(tert-butyl)-N-(pyrazine-2-carbonyl)-D-threoninate]	> 500 µM	> 500 µM	> 500 µM	> 500 µM	–
COC(=O)[C@H](COCc1ccccc1)NC(=O)c1cnccn1 [PC-L-OBn-Ser-Me, methyl O-benzyl-N-(pyrazine-2-carbonyl)-L-serinate]	> 250 µM	> 250 µM	> 250 µM	> 250 µM	–
COC(=O)[C@H](NC(=O)c1cnccn1)C(C)C [PC-D-Val-Me, methyl (pyrazine-2-carbonyl)-D-valinate]	> 500 µM	> 500 µM	> 500 µM	> 500 µM	–
O=C(N[C@H](CO)C(=O)O)c1cnccn1 [PC-D-Ser, (pyrazine-2-carbonyl)-D-serine]	> 500 µM	> 500 µM	> 500 µM	> 500 µM	–
C=C(NC(=O)c1cnccn1)C(=O)OC [PC-MeAcr, methyl 2-(pyrazine-2-carboxamido)acrylate]	> 125 µM	> 125 µM	> 125 µM	> 125 µM	–
COC(=O)[C@@H](CO)NC(=O)c1cnccn1 [PC-D-Ser-Me, methyl (pyrazine-2-carbonyl)-D-serinate]	> 500 µM	> 500 µM	> 500 µM	> 500 µM	–
COC(=O)[C@H](CCSC)NC(=O)c1cnccn1 [PC-L-Met-Me, methyl (pyrazine-2-carbonyl)-L-methioninate]	> 500 µM	> 500 µM	> 500 µM	> 500 µM	–
COC(=O)C(NC(=O)c1cnccn1)c1ccccc1 [PC-D/L-Pgl-Me, methyl 2-phenyL-2-(pyrazine-2-carboxamido)acetate]	> 500 µM	> 500 µM	> 500 µM	> 500 µM	–
CCOC(=O)[C@H](Cc1ccc(O)cc1)NC(=O)c1cnccn1 [PC-L-Tyr-Et, ethyl (pyrazine-2-carbonyl)-L-tyrosinate]	> 500 µM	> 500 µM	> 500 µM	> 500 µM	–
COC(=O)[C@@H](Cc1ccc(O)cc1)NC(=O)c1cnccn1 [PC-D-Tyr-Me, methyl (pyrazine-2-carbonyl)-D-tyrosinate]	> 500 µM	> 500 µM	> 500 µM	> 500 µM	–
CCOC(=O)CC[C@H](NC(=O)c1cnccn1)C(=O)OCC [PC-L-Glu-diEt, diethyl (pyrazine-2-carbonyl)-L-glutamate]	> 500 µM	> 500 µM	> 500 µM	> 500 µM	–
COC(=O)[C@@H](NC(=O)c1cnccn1)C(C)C [PC-L-Val-Me, methyl (pyrazine-2-carbonyl)-L-valinate]	> 500 µM	> 500 µM	> 500 µM	> 500 µM	–
COC(=O)[C@H](CC(C)C)NC(=O)c1cnccn1 [PC-L-Leu-Me, methyl (pyrazine-2-carbonyl)-L-leucinate]	> 500 µM	> 500 µM	> 500 µM	> 500 µM	–
O=C(O)CNC(=O)c1cnccn1 [PC-Gly, (pyrazine-2-carbonyl)glycine]	> 500 µM	> 500 µM	> 500 µM	> 500 µM	–
COC(=O)[C@@H](COC(C)(C)C)NC(=O)c1cnccn1 [PC-D-OtBu-Ser-Me, methyl O-(tert-butyl)-N-(pyrazine-2-carbonyl)-D-serinate]	> 500 µM	> 500 µM	> 500 µM	> 500 µM	–
COC(=O)[C@H](COC(C)(C)C)NC(=O)c1cnccn1 [PC-L-OtBu-Ser-Me, methyl O-(tert-butyl)-N-(pyrazine-2-carbonyl)-L-serinate]	> 500 µM	> 500 µM	> 500 µM	> 500 µM	–

SMILES	MIC ([1]; 24 h, read-out: MIC EF)	MIC ([2]; 24 h, read-out: MIC EC)	MIC ([3]; 24 h, read-out: MIC ACI)	MIC ([4]; 24 h, read-out: MIC PA)	further results
CCOC(=O)CNC(=O)c1cnccn1 [PC-Gly-Et, ethyl (pyrazine-2-carbonyl)glycinate]	> 500 µM	> 500 µM	> 500 µM	> 500 µM	–
C[C@H](NC(=O)c1cnccn1)C(=O)O [PC-L-Ala, (pyrazine-2-carbonyl)-L-alanine]	> 500 µM	> 500 µM	> 500 µM	> 500 µM	–
COC(=O)[C@H](C)NC(=O)c1cnccn1 (racemic) [PC-DL-Ala-Me, methyl (pyrazine-2-carbonyl)alaninate]	> 500 µM	> 500 µM	> 500 µM	> 500 µM	–
O=C(N[C@@H](COCc1ccccc1)C(=O)O)c1cnccn1 [PC-L-OBn-Ser, O-benzyl-N-(pyrazine-2-carbonyl)-L-serine]	> 500 µM	> 500 µM	> 500 µM	> 500 µM	–
CCOC(=O)[C@H](Cc1c[nH]c2ccccc12)NC(=O)c1cnccn1 [PC-L-Trp-Et, ethyl (pyrazine-2-carbonyl)-L-tryptophanate]	> 500 µM	> 500 µM	> 500 µM	> 500 µM	–
COC(=O)CC[C@@H](NC(=O)c1cnccn1)C(=O)OC [PC-D-Glu-diMe, dimethyl (pyrazine-2-carbonyl)-D-glutamate]	> 500 µM	> 500 µM	> 500 µM	> 500 µM	–
CCOC(=O)[C@H](CC(C)C)NC(=O)c1cnccn1 (racemic) [PC-DL-Leu-Et, ethyl (pyrazine-2-carbonyl)leucinate]	> 500 µM	> 500 µM	> 500 µM	> 500 µM	–
COC(=O)[C@H](NC(=O)c1cnccn1)[C@H](C)O [PC-D-Thr-Me, methyl (pyrazine-2-carbonyl)-D-threoninate]	> 500 µM	> 500 µM	> 500 µM	> 500 µM	–
COC(=O)[C@@H](CC(C)C)NC(=O)c1cnccn1 [PC-D-Leu-Me, methyl (pyrazine-2-carbonyl)-D-leucinate]	> 500 µM	> 500 µM	> 500 µM	> 500 µM	–
CCOC(=O)[C@H](Cc1ccccc1)NC(=O)c1cnccn1 (racemic) [PC-DL-Phe-Et, ethyl (pyrazine-2-carbonyl)phenylalaninate]	> 500 µM	> 500 µM	> 500 µM	> 500 µM	–
COC(=O)[C@@H](NC(=O)c1cnccn1)[C@@H](C)O [PC-L-Thr-Me, methyl (pyrazine-2-carbonyl)-L-threoninate]	> 500 µM	> 500 µM	> 500 µM	> 500 µM	–
CCOC(=O)[C@@H](Cc1c[nH]c2ccccc12)NC(=O)c1cnccn1 [PC-D-Trp-Et, ethyl (pyrazine-2-carbonyl)-D-tryptophanate]	> 500 µM	> 500 µM	> 500 µM	> 500 µM	–
COC(=O)[C@@H](NC(=O)c1cnccn1)[C@@H](C)OC(C)(C)C [PC-L-OtBu-Thr-Me, methyl O-(tert-butyl)-N-(pyrazine-2-carbonyl)-L-threoninate]	> 500 µM	> 500 µM	> 500 µM	> 500 µM	–
CCOC(=O)[C@H](C)NC(=O)c1cnccn1 [PC-L-Ala-Et, ethyl (pyrazine-2-carbonyl)-L-alaninate]	> 500 µM	> 500 µM	> 500 µM	> 500 µM	–
CNC(C)C1CCC(N)C(OC2C(N)CC(N)C(OC3OCC(C)(O)C(NC)C3O)C2O)O1 (centres unmarked) [gentamicin, reference compound]	–	–	–	–	MIC [1, 5]: > 8 µg/mL; MIC ([1]; ATCC29212|CCM4224, 24 h, read-out: MIC, spectrophotometric detection): > 8 µg/mL; MIC [2, 5]: 1 µg/mL; MIC ([2]; ATCC25922|CCM3954, 24 h, read-out: MIC, spectrophotometric detection): 1 µg/mL; MIC ([3]; ATCC19606|DSM30007, 24 h, read-out: MIC, spectrophotometric detection): 8 µg/mL; MIC ([3]; ATCC19606|DSM30007, 24 h, read-out: MIC, visual detection): 8 µg/mL; MIC [4, 5]: 0.5 µg/mL; MIC ([4]; ATCC27853|CCM3955, 24 h, read-out: MIC, spectrophotometric detection): 0.5 µg/mL
O=C(N[C@@H](CSCc1ccccc1)C(=O)O)c1cnccn1 [PC-L-SBn-Cys, S-benzyL-N-(pyrazine-2-carbonyl)-L-cysteine]	> 250 µM	> 250 µM	> 250 µM	> 250 µM	–
CCOC(=O)C[C@H](NC(=O)c1cnccn1)C(=O)OCC [PC-L-Asp-diEt, diethyl (pyrazine-2-carbonyl)-L-aspartate]	> 500 µM	> 500 µM	> 500 µM	> 500 µM	–
COC(=O)[C@H](CO)NC(=O)c1cnccn1 [PC-L-Ser-Me, methyl (pyrazine-2-carbonyl)-L-serinate]	> 500 µM	> 500 µM	> 500 µM	> 500 µM	–
